This note sets out measurements from article PMC4336329 (PLoS ONE, 2015).

Among all 310,000 compounds or so, about 14,000 (4.5%) showed an effect of 50% or more. Effects have a minus sign here. The list shows a part of the results.
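Also: peak tail current of the secondary pulse compared with the same well before compound.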

For the assay, the target named is human ether-à-go-go-related gene (hERG) potassium channel (human, UniProt Q12809). Kind of assay: primary screen, population patch clamp on CHO cells stably expressing hERG.
Sequence of human ether-à-go-go-related gene (hERG) potassium channel (Q12809 whole entry, looked up): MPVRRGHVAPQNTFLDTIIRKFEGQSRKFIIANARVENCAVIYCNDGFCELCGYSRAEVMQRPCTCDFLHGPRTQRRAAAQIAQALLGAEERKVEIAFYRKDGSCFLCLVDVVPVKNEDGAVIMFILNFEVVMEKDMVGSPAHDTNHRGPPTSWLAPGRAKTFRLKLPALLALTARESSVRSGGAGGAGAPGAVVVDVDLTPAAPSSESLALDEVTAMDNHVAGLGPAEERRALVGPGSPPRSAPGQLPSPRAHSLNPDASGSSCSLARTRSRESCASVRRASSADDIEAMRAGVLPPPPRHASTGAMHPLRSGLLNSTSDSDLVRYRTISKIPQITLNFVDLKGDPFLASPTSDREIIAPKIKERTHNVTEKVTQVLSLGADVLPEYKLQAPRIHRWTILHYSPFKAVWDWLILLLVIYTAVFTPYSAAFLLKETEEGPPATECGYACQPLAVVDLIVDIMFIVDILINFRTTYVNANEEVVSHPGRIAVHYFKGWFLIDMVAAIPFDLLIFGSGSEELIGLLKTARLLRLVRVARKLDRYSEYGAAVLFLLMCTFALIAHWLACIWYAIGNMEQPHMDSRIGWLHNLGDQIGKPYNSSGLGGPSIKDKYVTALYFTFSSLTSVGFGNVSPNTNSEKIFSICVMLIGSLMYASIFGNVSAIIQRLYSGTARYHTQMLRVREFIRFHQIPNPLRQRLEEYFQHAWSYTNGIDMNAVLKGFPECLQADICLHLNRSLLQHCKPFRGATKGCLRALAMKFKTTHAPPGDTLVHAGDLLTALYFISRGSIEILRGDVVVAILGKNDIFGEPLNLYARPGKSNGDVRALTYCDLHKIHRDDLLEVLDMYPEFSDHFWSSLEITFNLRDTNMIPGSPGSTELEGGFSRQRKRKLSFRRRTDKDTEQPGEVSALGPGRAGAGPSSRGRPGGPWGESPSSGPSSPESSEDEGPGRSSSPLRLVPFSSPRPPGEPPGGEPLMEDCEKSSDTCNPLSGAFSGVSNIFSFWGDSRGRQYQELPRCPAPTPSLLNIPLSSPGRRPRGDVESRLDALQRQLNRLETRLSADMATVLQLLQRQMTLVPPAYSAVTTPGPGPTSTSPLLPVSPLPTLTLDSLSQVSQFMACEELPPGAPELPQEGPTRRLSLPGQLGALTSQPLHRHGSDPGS
On to `N#CCCN(Cc1ccccc1)C(=O)Nc1ccc(F)cc1`, for which the “hERG current change (%, negative = inhibition) at 10uM” value stood at 9.77%.

On to `COc1ccc(CN(C)CC(=O)Nc2cccc3ccccc23)cc1F`, for which the “hERG current change (%, negative = inhibition) at 10uM” value is on record as -13.4%. Turning to `O=C1Nc2cc(Cl)c(Cl)cc2N(O)N1c1cc(Cl)cc(Cl)c1`, the “hERG current change (%, negative = inhibition) at 10uM” value is reported as 18.3%. For `CC(C)c1ccc(NC(=O)COC(=O)[C@H](CCC(N)=O)NC(=O)c2ccc(F)cc2)cc1` the value was -45.5%; for `COc1ccc(S(=O)(=O)N2CCC(C(=O)NCC3CCCO3)CC2)cc1OC` (stereo not drawn), 19.9%. As for `COCCCNC(=O)CC(NS(=O)(=O)c1ccc(Cl)cc1)c1ccco1` (stereo not drawn), the figure is 6.24%; as for `CCOc1ccc(-n2c(SCC)nc3c(c2=O)SCC3)cc1`, 15%. Consider `O=S(=O)(Nc1cccc2c1CCCC2)c1cccc(C(F)(F)F)c1`, for which the “hERG current change (%, negative = inhibition) at 10uM” value is listed as -4.79%.

With `CCOC(=O)c1c(C)[nH]c(C(=O)OCC(=O)NC(C)C)c1C`, the “hERG current change (%, negative = inhibition) at 10uM” value is given as -5.7%. Take `COc1ccc(/C=C/C(=O)NCCNC(=O)c2ccccc2)cc1OC`: the “hERG current change (%, negative = inhibition) at 10uM” value is given as -8.61%. As for `N#Cc1ccc(CN2C=NS(=O)(=O)c3ccccc32)cc1`, the figure is -14.7%; as for `NC(CSCc1cccc(Br)c1)C(=O)O` (stereo not drawn), -45.7%. For `COC(=O)c1ccc(OCC(=O)c2ccc(O)cc2O)cc1` the value was -11.3%; for `CS(=O)(=O)c1ccc2nc(NC(=O)Cc3ccccc3)sc2c1`, -0.144%; for `Cc1ccc(NC(=O)c2cccc3c2C(=O)N(C2CCCCC2)C3)c(C)c1`, 12.3%.

Consider `Cc1cccc(CN2CCN(c3ccccn3)CC2)c1`, for which the “hERG current change (%, negative = inhibition) at 10uM” value is -17%. As for `Cc1nc(NC(=O)C2CC2)sc1C(=O)N(C)C`, the figure is 23.8%; as for `COc1ccc(S(=O)(=O)Nc2ccc(C)cc2)cc1OC`, -22.7%; as for `O=C(NCCc1ccccc1)C1CCC(CNS(=O)(=O)c2ccccc2)CC1` (stereo not drawn), 13.4%. As for `Cc1ccc2nc(-c3ccc(NC(=O)CN(c4ccccc4C)S(C)(=O)=O)cc3)sc2c1`, the figure is -7.27%.

For the molecule `CN1CCN(C(=O)c2ccccc2[N+](=O)[O-])CC1`, the “hERG current change (%, negative = inhibition) at 10uM” value turned out to be 7.95%. As for `Clc1cccc(OCCCn2ccnc2)c1`, the figure is 6.9%; as for `O=C(CNS(=O)(=O)c1ccccc1)OCc1cccc([N+](=O)[O-])c1`, -30%. For the molecule `CC1CCCC(NC(=O)COC(=O)c2ccc(Cl)nc2)C1C` (stereo not drawn), the “hERG current change (%, negative = inhibition) at 10uM” value turned out to be 3.91%. For `O=c1c2c(nc3n1CCCCC3)sc1c(O)c(Br)ccc12` the value was -15.5%; for `CC1(O)N(CCC(=O)Nc2cccc(F)c2)C(=O)OC12CCCCC2` (stereo not drawn), 18.5%. As for `CCOc1ccc(N2Cc3ccccc3C2)cc1`, the figure is -2.48%; as for `COc1ccccc1C1=CC(=O)CCC1`, 10.5%; as for `CC(C)COP(=O)(c1ccc(N(C)C)cc1)C(O)c1ccccc1F` (stereo not drawn), -16.9%. With `Cc1cc(OCC(=O)NCC2CCC(C(=O)O)CC2)c2c(C)cc(=O)oc2c1` (stereo not drawn), the “hERG current change (%, negative = inhibition) at 10uM” value came out at 6.71%. On to `CCN(CC)Cc1ccccc1Sc1ccccc1.O=C(O)/C=C\C(=O)O`, for which the “hERG current change (%, negative = inhibition) at 10uM” value was -53.3%. `O=C(CN1C(=O)C2CC=CCC2C1=O)Nc1nnc(SCc2ccc(Cl)cc2)s1` (stereo not drawn): the “hERG current change (%, negative = inhibition) at 10uM” value is reported as -7.7%. For `CCC1CN(S(=O)(=O)c2ccc3c(c2)NC(=O)CC(=O)N3)c2cc(Cl)ccc2O1` (stereo not drawn) the value was 9.44%; for `OCCNc1nc(Nc2ccccc2Oc2ccccc2)nc(N2CCCC2)n1`, 3.68%.

Regarding `CN(CC1COCCO1)C(=O)c1cc(COc2c(F)cccc2F)on1` (stereo not drawn), the “hERG current change (%, negative = inhibition) at 10uM” value is 6.62%. On to `Cn1c(SCc2nc3ccccc3s2)nnc1-c1ccc2c(c1)OCO2`, for which the “hERG current change (%, negative = inhibition) at 10uM” value was -29.7%. For `CCOC(=O)c1csc(NC(=O)Nc2cccc(Cl)c2)n1` the value was 23%; for `CC(=O)NN1C(=O)/C(=C\c2ccc(Cl)cc2)SC1=S`, 0.662%. For `N#Cc1ccc(OCC(=O)Nc2ccncc2)cc1` the value was 18.1%; for `CCOC(=O)c1c(C)[nH]c(C(=O)COC(=O)c2cc(C)oc2C)c1C`, -23.1%; for `COc1ccc(N2CC(C(=O)N3CCOCC3)CC2=O)cc1` (stereo not drawn), 18.3%. For `CCN(CCO)Cc1cc(=O)oc2cc3c(cc12)CCC3` the value was 10.4%; for `O=C(N1CCN(c2ncccn2)CC1)C12CC3CC(CC(C3)C1)C2`, 6.88%.

As for `Cc1ccc(-c2nnc(SCC(N)=O)n2C)cc1`, the “hERG current change (%, negative = inhibition) at 10uM” value is on record as -0.685%. For the molecule `CCC1CCCCN1CC(=O)c1c(C)[nH]c2ccccc12` (stereo not drawn), the “hERG current change (%, negative = inhibition) at 10uM” value was -27.4%.
